± gives the standard deviation of the averaged measurements. This is one part of the list.

This note sets out measurements from the supplement of paper PMC11417369.

This test has as its system PfAP2-LT AP2 domain (GST-tagged). Briefly: gcPBM binding intensity (ln(normalized median fluorescence intensity)); higher = stronger DNA binding. In a few lines: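 GST-fused DNA-binding domains of P. falciparum, expressed in E. coli, were applied at about 25 μg on average for 1 h to an Agilent 4 × 180k array of primer-extended double-stranded 36-bp intergenic genomic probes and negative controls. Binding intensity is the highest Masliner-normalised natural-log median intensity across replicate spots of either probe orientation, measured with Alexa488 anti-GST antibody and a 488 nm scan.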
As for “TTTTTAAAACCTTACATACACACAAATATATATATA [CACACA_site678]”, the “gcPBM binding intensity (ln)” value was 8.76 ± 0.31.
“TCTTGTATACGGCATGCATGTTAGCACATACGGACA [TGCATGCA_site146]”: the “gcPBM binding intensity (ln)” value was 8.9 ± 0.32.
For “TCTTTTTTTACTTTCTTTTTTTTTTTTTTTTTTTTT [XGTACX_negctrl_site610]”, the “gcPBM binding intensity (ln)” value stood at 8.36 ± 0.71.
Regarding “TGTTAATTAAAACATCATTAATATTATTAAAAATAC [XGTACX_negctrl_site509]”, the “gcPBM binding intensity (ln)” value worked out at 8.3 ± 0.39.
In the case of “AATTGATACCTTACATGTACATAATATATATAAATA [XGTACX_site321]”, the “gcPBM binding intensity (ln)” value was 8.77 ± 0.4.
Regarding “GAACCATTTTTTGGTATACACACGTAATTATATAAT [CACACA_site8552]”, the “gcPBM binding intensity (ln)” value turned out to be 8.88 ± 0.36.
With “TTTTTACATACAAATTAACACACATATAGAAAAGAG [CACACA_site8570]” the figure was 8.86 ± 0.37; with “CCTTTATAAAAAAGTAGTACACAATGAATTTATAAT [XGTACX_site5523]”, 8.6 ± 0.49.
As for “CAATACTAATTGTATACACACAAAAATATACCATAT [CACACA_site3326]”, the “gcPBM binding intensity (ln)” value worked out at 9.1 ± 0.47.
With “TATATTTATAGACACACACACAAAAAAAAAAAAAAA [CACACA_site6818]” the figure was 9.29 ± 0.5; with “TAATTTTTTTTATTATGTACTTAATAAATGTTAATT [XGTACX_site365]”, 8.59 ± 0.52; with “AAATTATTTATATGTTGTACTTATCCATTTTTATAA [XGTACX_site7441]”, 8.84 ± 0.42.
Turning to “TATACGCATATATAAACACACAAAAAAAAAAAAAAA [CACACA_site2026]”, the “gcPBM binding intensity (ln)” value worked out at 8.86 ± 0.48.
As to “TTAGCTACACGCTAATGTACACAAATACAAAGAAAA [XGTACX_site3993]”, the “gcPBM binding intensity (ln)” value is 8.69 ± 0.52.
In the case of “TATATTAATTTATATCAACACACAAAATCAATATAC [CACACA_site8518]”, the “gcPBM binding intensity (ln)” value came out at 8.84 ± 0.38.
In the case of “AAGAATGTTATATTATGATGCTGTCTTTTTTTAAGA [CACACA_negctrl_site251]”, the “gcPBM binding intensity (ln)” value amounted to 8.49 ± 0.35.
In the case of “ATAAAATATTATATATATATATATATATATATATAT [CACACA_negctrl_site215]”, the “gcPBM binding intensity (ln)” value is 9.18 ± 0.28.
With “TTTTTTTTTAATTATGCATGTAAATTATATATTATA [TGCATGCA_site335]”, the “gcPBM binding intensity (ln)” value came out at 8.51 ± 0.49.
With “AATAAACATATATGTACACACATATACATATATATA [CACACA_site2848]”, the “gcPBM binding intensity (ln)” value turned out to be 9.12 ± 0.36.
With “TATTTATAATTAAATACACACATATATTATATATTT [CACACA_site616]”, the “gcPBM binding intensity (ln)” value was found to be 8.82 ± 0.46.
As for “AATATTTATTTAATTTCACACAGGTCTTTTTTTTTT [CACACA_site5188]”, the “gcPBM binding intensity (ln)” value turned out to be 8.78 ± 0.51.
In the case of “TTGTTCTTATTTCATTTTTATATGATATTTCATTAT [CACACA_negctrl_site1619]”, the “gcPBM binding intensity (ln)” value is 8.96 ± 0.49.
For the sequence “GAGAAAAGGAAATAACGTACACATATGCATATCCAA [XGTACX_site5858]”, the “gcPBM binding intensity (ln)” value was 9.13 ± 0.54.
The same measure for “TGAAAGAAGCATAAATGTACACACATATTTATATAT [XGTACX_site2645]”: 9.01 ± 0.46; for “TATTTATTGTGACACTTTTATTATTTTATGATAAAA [CACACA_negctrl_site37]”: 8.56 ± 0.49; for “GTGTTCTTGTTATACACACACATATATATATATATA [CACACA_site1032]”: 9.83 ± 0.057.
Turning to “GTAATATTTTATAGTAGTACATATTTTTATTATTTT [XGTACX_site3333]”, the “gcPBM binding intensity (ln)” value was 8.68 ± 0.47.
For “GAGAGGTCAGTTCACAGTACCCAGAAACTCTACGAG [XGTACX_site2559]”, the “gcPBM binding intensity (ln)” value came out at 8.62 ± 0.51.
Regarding “TACAATCTAAAATACACACGCACACCGAAAAAAAAA [CACACA_site3520]”, the “gcPBM binding intensity (ln)” value came out at 9.37 ± 0.35.
The same measure for “TATATATATAATTAAGCATGCTAGAAACCTTTGAAA [TGCATGCA_site489]”: 8.71 ± 0.42; for “ATATATATATATATATGTACATATTTTTGTTTGATG [XGTACX_site51]”: 9.96 ± 0.15.
Turning to “CAGATATTCATATAAACACACATACAAATTATGTAT [CACACA_site4258]”, the “gcPBM binding intensity (ln)” value turned out to be 8.96 ± 0.38.
With “ATATATATATATATTGCACACACAATTATTATTATT [CACACA_site8721]” the figure was 9.49 ± 0.11; with “TAACATATAAGTGTGTGTACGTACTGCGTATAATAT [XGTACX_site8597]”, 9.54 ± 0.26; with “TGAATATATAAATATGCACACTTCTATTATAAATAA [CACACA_site5796]”, 8.72 ± 0.39.
With “GACAAACAATATGAATGTACATAAAAATATAACTAA [XGTACX_site1167]”, the “gcPBM binding intensity (ln)” value came out at 9.04 ± 0.49.
“TGAAGAATATTTTTCACACATATATATATATATATA [CACACA_site6080]”: the “gcPBM binding intensity (ln)” value is 9.62 ± 0.35.
In the case of “TTTTAACATATAAGTACACACATATAATCAATCATA [CACACA_site2325]”, the “gcPBM binding intensity (ln)” value came to 8.87 ± 0.42.
With “ATATAATATTTATATGTACACACCTTAATCCTTAAA [CACACA_site3555]”, the “gcPBM binding intensity (ln)” value was 8.77 ± 0.47.
Take “ATAAACGTTTTTGAAAGTACATATCATTCATTTGAT [XGTACX_site200]”: the “gcPBM binding intensity (ln)” value was determined as 8.73 ± 0.28.
The same measure for “AAAAAAATTAATATGTCAGCACATATATACATACAT [GTGCAC_negctrl_site110]”: 8.88 ± 0.41.
Regarding “TATATATATAAAAAAGCACACATACATACATACATA [CACACA_site8196]”, the “gcPBM binding intensity (ln)” value turned out to be 9.13 ± 0.33.
As for “CCTTATAAATACTGCACACATAAAATATATATTATC [CACACA_site2806]”, the “gcPBM binding intensity (ln)” value worked out at 9.09 ± 0.35.
On to “TTTGTTCATATGAAATGTACAAAAAAAAAAAAAAAA [XGTACX_site8849]”, for which the “gcPBM binding intensity (ln)” value was determined as 8.42 ± 0.34.
For the sequence “TTTTATCGTTTTTTTTTTTTTTTTTTTTTTTTTTTT [CACACA_negctrl_site1309]”, the “gcPBM binding intensity (ln)” value worked out at 8.71 ± 0.26.
In the case of “ATGTAGAAGTAATGCACACATATGTATTTATATATA [CACACA_site5391]”, the “gcPBM binding intensity (ln)” value turned out to be 9.23 ± 0.5.
As for “TCTGAAAATTAGAAAAGTACAAAATGGTATAGGAAA [XGTACX_site4396]”, the “gcPBM binding intensity (ln)” value turned out to be 8.75 ± 0.45.
With “ATACAAATTTATATTTCACACATTATTATATACTTA [CACACA_site6034]” the figure was 8.85 ± 0.41; with “ATATATATATATAAATGTACAGGCTTATCTCTTATT [XGTACX_site1828]”, 9.15 ± 0.21.
Turning to “TGTATTATATATGTGTGTACATATTTTTTTTTTTTT [XGTACX_site3351]”, the “gcPBM binding intensity (ln)” value was 9 ± 0.49.
As to “AAATTATTTCAAATGTTGCACTAAAAATAAAATTAT [GTGCAC_site9460]”, the “gcPBM binding intensity (ln)” value was determined as 8.31 ± 0.41.
The same measure for “TTTTTATTTATATTTCATTGAAGTTAAATTATTTTA [XGTACX_negctrl_site575]”: 8.2 ± 0.65.
For “TACATTCTAATAATTGCACACTGGTTATTAAAAGGA [CACACA_site1614]”, the “gcPBM binding intensity (ln)” value worked out at 8.64 ± 0.39.
For “TTTTATCAATAAATTCGTACACATGAACTAGAGAGT [XGTACX_site5758]”, the “gcPBM binding intensity (ln)” value is 8.63 ± 0.41.
“ATTAGTATATTTCTCTGTACTTACATTAAAATATAA [XGTACX_site2217]”: the “gcPBM binding intensity (ln)” value stood at 8.61 ± 0.35.
In the case of “AATTTAATATTCATCTCTAAAGCTATAACAATTACT [CACACA_negctrl_site1079]”, the “gcPBM binding intensity (ln)” value was found to be 8.51 ± 0.42.
